# About 5,700 (2.6%) of roughly 220,000 compounds were called active. This list was built around the results that the source calls inconclusive (neither active nor inactive); the mix of calls is not that of the screen. The call rests on the fitted dose curve; in most records, active means well fitted inhibition curve with a large enough effect; inconclusive means small, poorly fitted or top-dose-only effect; inactive means no such curve, though single readings can be large or run the other way. Potencies of inconclusive entries are doubtful fits and often do not repeat.
# Target: Lysine-specific demethylase 5B (Homo sapiens) (UniProt Q9UGL1)
# Sequence of UniProt Q9UGL1 (Q9UGL1 whole entry, looked up): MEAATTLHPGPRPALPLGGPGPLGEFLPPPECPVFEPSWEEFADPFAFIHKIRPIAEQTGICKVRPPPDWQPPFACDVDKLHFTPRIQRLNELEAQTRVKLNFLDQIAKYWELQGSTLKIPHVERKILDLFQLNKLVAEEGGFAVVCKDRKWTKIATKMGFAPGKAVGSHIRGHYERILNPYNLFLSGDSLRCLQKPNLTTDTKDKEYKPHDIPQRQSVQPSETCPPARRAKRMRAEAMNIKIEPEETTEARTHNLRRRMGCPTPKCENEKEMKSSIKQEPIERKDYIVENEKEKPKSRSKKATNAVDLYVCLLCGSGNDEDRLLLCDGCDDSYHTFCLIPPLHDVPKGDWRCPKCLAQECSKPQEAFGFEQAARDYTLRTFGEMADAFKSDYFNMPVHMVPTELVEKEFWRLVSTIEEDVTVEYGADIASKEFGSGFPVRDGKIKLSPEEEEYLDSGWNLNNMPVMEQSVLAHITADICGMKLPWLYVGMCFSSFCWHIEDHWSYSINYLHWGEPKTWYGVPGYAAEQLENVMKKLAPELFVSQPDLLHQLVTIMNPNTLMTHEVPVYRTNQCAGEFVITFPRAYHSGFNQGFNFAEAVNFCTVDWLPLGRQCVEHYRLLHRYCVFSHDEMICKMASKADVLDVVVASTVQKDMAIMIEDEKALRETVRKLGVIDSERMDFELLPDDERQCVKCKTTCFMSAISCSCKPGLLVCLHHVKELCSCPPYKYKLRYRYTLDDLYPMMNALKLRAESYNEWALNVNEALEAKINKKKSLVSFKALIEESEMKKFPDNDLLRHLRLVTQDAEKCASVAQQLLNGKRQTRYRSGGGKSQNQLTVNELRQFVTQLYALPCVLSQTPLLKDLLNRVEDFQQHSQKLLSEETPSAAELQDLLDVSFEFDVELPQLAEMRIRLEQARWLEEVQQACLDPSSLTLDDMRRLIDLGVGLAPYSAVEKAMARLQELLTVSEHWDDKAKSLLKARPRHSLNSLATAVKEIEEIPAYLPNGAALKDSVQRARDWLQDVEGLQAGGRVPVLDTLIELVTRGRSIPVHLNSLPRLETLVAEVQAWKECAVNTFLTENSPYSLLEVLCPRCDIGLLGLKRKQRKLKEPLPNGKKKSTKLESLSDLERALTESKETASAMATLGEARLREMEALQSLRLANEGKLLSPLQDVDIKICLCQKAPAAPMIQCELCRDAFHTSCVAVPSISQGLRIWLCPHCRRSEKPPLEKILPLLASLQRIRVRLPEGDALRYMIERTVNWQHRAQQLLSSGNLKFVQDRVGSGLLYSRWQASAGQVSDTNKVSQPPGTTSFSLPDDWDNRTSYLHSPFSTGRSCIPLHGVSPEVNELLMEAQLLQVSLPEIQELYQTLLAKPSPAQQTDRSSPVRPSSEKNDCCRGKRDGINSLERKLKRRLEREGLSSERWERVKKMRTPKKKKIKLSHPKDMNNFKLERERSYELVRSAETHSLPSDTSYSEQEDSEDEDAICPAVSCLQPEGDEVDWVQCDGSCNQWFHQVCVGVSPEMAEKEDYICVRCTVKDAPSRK
# Assay: Primary screen for KDM5B Histone Demethylases FDH-coupled qHTS; further: nearly all actives have a fitted effect of over 70% in size; on activity change, negative = inhibition: 0% is about no effect
# Details: FDH-coupled NADH fluorescence (FDH is formaldehyde dehydrogenase); activity change, negative = inhibition: at 57.7 µM (top of the series) unless noted
# Method in brief: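 qHTS format, multiple compound concentrations. Buffer 50 mM HEPES pH 7.5/0.01% Tween-20; 200 nM KDM5BΔAP final; 10 min compound preincubation; substrate-mix levels 12.5 µM peptide, 25 µM α-KG, 0.25 mM NAD⁺; 30 min RT; ΔRFU.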
# Potency means the concentration at half of the fitted maximal effect; tags describe the fitted curve by direction and shape.
Compound,"activity change, negative = inhibition",Potency
O=C(O)C(c1c[nH]c2ccccc12)N1CCN(Cc2cccs2)CC1 (stereo not drawn),inactive: 7.52%,
COC[C@@H]1CCCN1Cc1cn(-c2ccccc2C)nc1-c1ccc(OC)c(F)c1,inactive: -15.7%,
CCn1nc(C(=O)Nc2ccc(OC)c(Oc3ccc(OC)cc3)c2)c2ccccc2c1=O,inactive: -15.6%,
N#Cc1ccc(CN2CCC3(CC2)OCCN(CCc2ccccc2)C3=O)cc1,inactive: 6.09% [at 86.2 µM],
O=C(CN1C(=O)C(=O)c2ccccc21)c1ccccc1,,"inconclusive: 28.2 µM [inhibitor, single point]"
O=C(NCCc1ccccc1F)c1nc2sccn2c1Br,inactive: 4.82%,
COc1cc(C2CC(=O)Nc3c(-c4ccccc4)nsc32)cc2c1OCO2 (stereo not drawn),inactive: 16.3%,
N#CCCn1cc(C(=O)Nc2ccc(F)cc2)c(-c2cccs2)n1,inactive: 6.58%,
CCCN(C)C(=O)Cc1ccc(N(Cc2ccc(C)cc2)C(=O)c2ccco2)cc1,,"inconclusive: 35.5 µM [inhibitor, partial curve, poor fit]"
CC(C)CCN1CC[C@@H]2OCC(=O)N(Cc3ccccc3)[C@H]2CC1,,"inconclusive: 39.8 µM [inhibitor, single point]"
Cc1ccccc1OCc1ccc(-c2nc(C#N)c(NCCCN(C)C)o2)o1,,"inconclusive: 25.1 µM [inhibitor, partial curve, poor fit]"
CCOCCCNC(=O)c1ccc2nc(C)c(C)nc2c1,inactive: 15.3%,
O=c1c2cnc3ncnn3c2ccn1-c1cc(Cl)ccc1Cl,,"inconclusive: 10 µM [inhibitor, partial curve, poor fit]"
CCCNCc1ccc(-c2ccc(C(C)O)cc2)o1 (stereo not drawn),,"inconclusive: 20 µM [inhibitor, partial curve, poor fit]"
CCOc1ccc(CNC(=O)c2cc3oc4ccccc4c3n2C)cc1,,"inconclusive: 7.08 µM [inhibitor, partial curve, poor fit]"
Cc1ccccc1CN1CC[C@H](c2nc3ccccc3s2)C1,,"inconclusive: 35.5 µM [inhibitor, partial curve]"
COc1ccc(N2Cc3cccc(C(=O)NCc4ccc(F)cc4)c3C2=O)cc1,inactive: -18%,
O=c1c2c(n(Cc3ccccc3)n1-c1ccccc1)CN(Cc1ccc3[nH]ccc3c1)CC2,,"inconclusive: 39.8 µM [inhibitor, partial curve, poor fit]"
CN(C)c1ccc(CNc2nc(-c3ccco3)nn2S(=O)(=O)c2ccc3ccccc3c2)cc1,,"inconclusive: 14.1 µM [inhibitor, partial curve, poor fit]"
COc1cccc(NC(=O)NC[C@H]2O[C@@H](CO)[C@@H](O)[C@H]2N2CCN(c3ccccc3OC)CC2)c1,,"inconclusive: 25.1 µM [inhibitor, partial curve, poor fit]"
O=C(CSc1nnc(Cc2cccs2)n1C1CCCCC1)N1CCN(c2ccccn2)CC1,,"inconclusive: 22.4 µM [inhibitor, single point]"
COC(=O)CNC(=O)c1cc(-c2ccc(Cl)cc2Cl)c2nncn2n1,,active: 44.7 µM
CCOC(=O)Cc1cc(=O)n2[nH]c(NCc3ccc(OC)cc3)nc2n1,inactive: 11.4%,
CCNC(=O)CNC(=O)Cn1c(-c2ccccc2)cc2ccccc21,,"inconclusive: 22.4 µM [inhibitor, partial curve, poor fit]"

Compound,"activity change, negative = inhibition",Potency
CN(C)CCOCC1(C)COc2ccc(C(=O)NCc3ccc(F)cc3)cc2N1 (stereo not drawn),,active: 39.8 µM
Cc1oc2ncnc(N3CCOCC3)c2c1C(=O)NCC1CCN(CCc2ccc(F)cc2)CC1,inactive: -17.4%,
O=C(CNc1nc(Cl)nc2nc[nH]c12)NC1CC1,inactive: -1.28%,
CC(=O)Nc1cccc2nc(CN3CCN(C(C)C)C(CCO)C3)ccc12 (stereo not drawn),,"inconclusive: 15.8 µM [inhibitor, single point]"
CCCc1nc(SC)ncc1C(=O)NCCc1ccc(Cl)cc1,inactive: 0.231%,
COCC(=O)Nc1ccc(-c2noc([C@@H]3CCCN3Cc3ncc[nH]3)n2)cn1,,active: 39.8 µM
CCOc1ccc(C(=O)Nc2cccc(-c3nnc4n3CCCC4)c2)cc1,inactive: -0.829%,
COC(=O)[C@@H]1Cc2ncn(Cc3ccc(OC)cc3)c2CN1C(=O)c1ccc(F)cc1,,"inconclusive: 35.5 µM [inhibitor, partial curve, poor fit]"
COC(=O)C1=C(C)N=C2SC=C(CC(=O)NCCC(C)C)N2C1c1ccsc1 (stereo not drawn),,"inconclusive: 31.6 µM [inhibitor, single point]"
COc1ccccc1/C=C/C=C(/C#N)c1nc2ccccc2[nH]1,,"inconclusive: 12.6 µM [inhibitor, partial curve, poor fit]"
CCCc1noc(-c2ccn3c(CNC(=O)c4ccc5ccccc5n4)nnc3c2)n1,,active: 12.6 µM
COc1cccc(/C=C2\Oc3cc(OS(C)(=O)=O)ccc3C2=O)c1OC,inactive: 19.8%,
C=CCn1c(-n2nc(C)c(C)c2C)nc2c1c(=O)n(CCN1CCCCC1)c(=O)n2C,inactive: -11.4%,
CN(C)C[C@@H]1CN(c2ccncn2)C[C@H]1NC(=O)c1nccc2ccccc12,inactive: -0.533%,
CC(C)NC(=O)c1cc(F)c(F)cc1Cl,inactive: 14.4%,
Cc1ccc(OC(=O)c2cc(-c3ccc4c(c3)OCCO4)on2)c(C)c1,,"inconclusive: 31.6 µM [inhibitor, partial curve, poor fit]"
CCC1Oc2ccc(NC(=O)c3cccs3)cc2CN(Cc2ccc(OC)cc2)C1=O (stereo not drawn),,"inconclusive: 35.5 µM [inhibitor, single point]"
COc1cccc(-c2nc(N3CCOCC3)cc3c2CN(CC2CC2)C3=O)c1,,active: 39.8 µM
COCCn1cc2c3c(cccc31)CN(C(=O)c1c(F)cccc1Cl)CC2,,"inconclusive: 15.8 µM [inhibitor, partial curve]"
COc1ccc(OCC(=O)N2CCC(Cc3nc(-c4ccc(OC)cc4)no3)CC2)cc1,inactive: -24.4%,
C#CCNC(=O)[C@H]1O[C@H](CCN2CCNCC2)CC[C@@H]1O,inactive: 189% [at 86.2 µM],
Cc1c(O)ccc2c(=O)c(-c3nc4ccccc4s3)coc12,inactive: -7.39%,
CCCCC(CC)C(=O)NC12CC3CC(CC(C3)C1)C2 (stereo not drawn),inactive: 19.8%,
CCc1noc(-c2ccn3c(CNC(=O)c4ccc(OC)c(F)c4)nnc3c2)n1,,"inconclusive: 8.91 µM [inhibitor, full curve, poor fit]"

# Reference: PubChem BioAssay AID1347165 (National Center for Advancing Translational Sciences (NCATS), 2019)
